{"source": "paper PMC4336329", "about": "(PLoS ONE, 2015)", "note": "Out of some 310,000 compounds screened, about 14,000 (4.5%) showed an effect of 50% or more. The effect is printed as a negative number. This is one part of the list.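 Also: peak tail current of the secondary pulse compared with the same well before compound.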", "data": [{"target": "human ether-à-go-go-related gene (hERG) potassium channel (human, UniProt Q12809)", "sequence (Q12809 whole entry, looked up)": "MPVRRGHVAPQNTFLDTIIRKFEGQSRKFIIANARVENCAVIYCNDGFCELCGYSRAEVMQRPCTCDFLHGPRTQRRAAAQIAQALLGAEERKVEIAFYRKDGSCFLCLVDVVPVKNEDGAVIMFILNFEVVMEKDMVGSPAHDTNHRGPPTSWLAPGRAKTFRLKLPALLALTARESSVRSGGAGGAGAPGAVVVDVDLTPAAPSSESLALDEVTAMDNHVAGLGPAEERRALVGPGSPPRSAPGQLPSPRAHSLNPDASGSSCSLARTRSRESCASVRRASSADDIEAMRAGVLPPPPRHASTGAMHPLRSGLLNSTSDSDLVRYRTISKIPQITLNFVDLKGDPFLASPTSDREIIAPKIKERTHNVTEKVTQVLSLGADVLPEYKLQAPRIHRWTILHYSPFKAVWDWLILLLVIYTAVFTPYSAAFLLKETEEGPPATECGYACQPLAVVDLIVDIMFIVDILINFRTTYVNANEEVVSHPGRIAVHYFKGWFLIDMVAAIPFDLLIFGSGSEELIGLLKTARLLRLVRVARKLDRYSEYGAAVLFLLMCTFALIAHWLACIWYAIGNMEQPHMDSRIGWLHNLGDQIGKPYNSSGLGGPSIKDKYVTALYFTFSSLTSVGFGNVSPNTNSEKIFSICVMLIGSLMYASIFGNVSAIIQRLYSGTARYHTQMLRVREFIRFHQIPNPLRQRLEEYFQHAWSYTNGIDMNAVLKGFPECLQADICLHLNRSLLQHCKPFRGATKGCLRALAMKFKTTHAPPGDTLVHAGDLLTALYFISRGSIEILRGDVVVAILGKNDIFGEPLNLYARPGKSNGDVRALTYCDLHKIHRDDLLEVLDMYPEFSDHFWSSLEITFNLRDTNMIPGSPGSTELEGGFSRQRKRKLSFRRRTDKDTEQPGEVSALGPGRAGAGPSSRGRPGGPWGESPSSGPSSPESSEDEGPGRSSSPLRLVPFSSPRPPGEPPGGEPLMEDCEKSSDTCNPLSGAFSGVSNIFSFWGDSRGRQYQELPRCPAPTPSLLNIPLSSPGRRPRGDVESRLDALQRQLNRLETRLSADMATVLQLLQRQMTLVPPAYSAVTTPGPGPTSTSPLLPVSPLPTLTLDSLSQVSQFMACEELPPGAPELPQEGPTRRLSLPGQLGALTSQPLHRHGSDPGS", "assay": "primary screen, population patch clamp on CHO cells stably expressing hERG", "units": {"hERG current change (%, negative = inhibition) at 10uM": "%"}, "values": [{"smiles": "C/C=C1\\COC(C(=O)NCCN2CCCC2)(C(F)(F)F)C=C1C=C1CCCCC1", "note": "(centres unmarked)", "hERG current change (%, negative = inhibition) at 10uM": -34.5}, {"smiles": "CCN(CCNC(=O)c1cccc(N2CCCC2=O)c1)c1ccccc1", "hERG current change (%, negative = inhibition) at 10uM": -21.6}, {"smiles": "COC(=O)C1=CO[C@@H](C)[C@H]2CN3CC[C@]4(C(=O)Nc5ccccc54)[C@@H]3C[C@H]12", "hERG current change (%, negative = inhibition) at 10uM": 15.5}, {"smiles": "COc1ccccc1C(=O)Nc1ccncc1", "hERG current change (%, negative = inhibition) at 10uM": 2.06}, {"smiles": "Cc1cccc(-c2nc3cc([N+](=O)[O-])ccc3o2)c1", "hERG current change (%, negative = inhibition) at 10uM": 11.9}, {"smiles": "CN(C)S(=O)(=O)c1ccc(NC(=O)COC(=O)Cn2[nH]c(=O)c3ccccc3c2=O)cc1", "hERG current change (%, negative = inhibition) at 10uM": 18}, {"smiles": "CC1CCC(NC(=O)c2cc(S(=O)(=O)N3CCCCC3)ccc2N2CCOCC2)CC1", "note": "(centres unmarked)", "hERG current change (%, negative = inhibition) at 10uM": -36.9}, {"smiles": "O=C1NC(=Nc2ccc(O)cc2)S/C1=C\\C=C\\c1ccco1", "hERG current change (%, negative = inhibition) at 10uM": 6.5}, {"smiles": "CC(C)NCC(O)Cn1c2c(c3ccccc31)CCc1c-2cnn1-c1ccccc1", "note": "(centres unmarked)", "hERG current change (%, negative = inhibition) at 10uM": -9.13}, {"smiles": "O=C(c1ccco1)N(c1ccccn1)c1ccccn1", "hERG current change (%, negative = inhibition) at 10uM": 0.647}, {"smiles": "COc1cc(CN2CCC(n3nccc3NC(=O)CCCc3ccccc3)CC2)ccc1F", "hERG current change (%, negative = inhibition) at 10uM": -66.5}, {"smiles": "O=C1CC(c2cccc(Oc3ccccc3)c2)NC(=O)N1", "note": "(centres unmarked)", "hERG current change (%, negative = inhibition) at 10uM": 5.15}, {"smiles": "CCOc1cc(C2NC(=O)NC(C)=C2C(C)=O)cc(Cl)c1OCC(=O)O", "note": "(centres unmarked)", "hERG current change (%, negative = inhibition) at 10uM": 5.35}, {"smiles": "Cc1nn(S(=O)(=O)c2ccc(F)cc2)c(C)c1S(=O)(=O)N1CCOCC1", "hERG current change (%, negative = inhibition) at 10uM": 22.6}, {"smiles": "CC1CN(S(=O)(=O)c2cccc(C(=O)Nc3ccccc3N3CCCCC3)c2)CC(C)O1", "note": "(centres unmarked)", "hERG current change (%, negative = inhibition) at 10uM": 5.06}, {"smiles": "Cc1ccc(C)c(OC(=O)CN2C(=O)c3ccccc3C2=O)c1", "hERG current change (%, negative = inhibition) at 10uM": 16}, {"smiles": "Fc1ccc(-c2csc(N3CCC(c4ccccc4)C3)n2)cc1", "note": "(centres unmarked)", "hERG current change (%, negative = inhibition) at 10uM": 9.17}, {"smiles": "N#CN(Cc1ccccc1)Cc1ccccc1", "hERG current change (%, negative = inhibition) at 10uM": -29.1}, {"smiles": "N#CCC(=O)Nc1ccc(C(=O)NCCc2c[nH]c3ccccc23)cc1", "hERG current change (%, negative = inhibition) at 10uM": 16.5}, {"smiles": "CC(=O)c1ccc(NC(=S)NCc2ccc(Cl)cc2Cl)cc1", "hERG current change (%, negative = inhibition) at 10uM": 11.8}, {"smiles": "COc1ccc2cc(/C(C)=N/NC(=O)c3cc(-c4cccnc4)nc4ccccc34)ccc2c1", "hERG current change (%, negative = inhibition) at 10uM": 11.8}, {"smiles": "O=C(CSc1nc2c(c(C(F)(F)F)n1)CCc1ccccc1-2)NCc1ccc(F)cc1", "hERG current change (%, negative = inhibition) at 10uM": 14.2}, {"smiles": "Cc1ccc2c(c1)sc1nc(=O)n(-c3cccc(Cl)c3)c(=O)n12", "hERG current change (%, negative = inhibition) at 10uM": 3.86}, {"smiles": "COCc1c(C(=O)N/N=C(/C)c2ccccc2)nnn1-c1nonc1N", "hERG current change (%, negative = inhibition) at 10uM": 23.8}, {"smiles": "S=c1[nH]nc(-c2ccco2)n1Cc1ccccc1", "hERG current change (%, negative = inhibition) at 10uM": 7.19}, {"smiles": "CCCCC(CCC(=O)O)(C(=O)OCC)c1csc(N)n1", "note": "(centres unmarked)", "hERG current change (%, negative = inhibition) at 10uM": 15.9}, {"smiles": "Cc1ccc2nc(NCCc3ccc(Cl)cc3)c3nncn3c2c1", "hERG current change (%, negative = inhibition) at 10uM": 8.75}, {"smiles": "CC(C)c1nc2ccc(Br)cn2c1NC1CCCC1", "hERG current change (%, negative = inhibition) at 10uM": -11.3}, {"smiles": "CCCOc1ccc(S(=O)(=O)NNC(=O)c2cc3ccccc3o2)cc1", "hERG current change (%, negative = inhibition) at 10uM": 8.21}, {"smiles": "CN(C)C(CNc1ncnc2sccc12)c1cccs1", "note": "(centres unmarked)", "hERG current change (%, negative = inhibition) at 10uM": -2.15}, {"smiles": "O=C(CN1C(=O)NC2(CCCCCC2)C1=O)c1ccc(F)cc1", "hERG current change (%, negative = inhibition) at 10uM": -10.7}, {"smiles": "CCOc1cc(C)cc2oc(=O)cc(-c3ccccc3)c12", "hERG current change (%, negative = inhibition) at 10uM": 1.22}, {"smiles": "O=c1[nH][nH]cc1C=NCc1cccnc1", "hERG current change (%, negative = inhibition) at 10uM": 12.7}, {"smiles": "COc1ccccc1NC(=O)CN1C(=O)CSC(C)C1=O", "note": "(centres unmarked)", "hERG current change (%, negative = inhibition) at 10uM": 35.9}, {"smiles": "CCc1ccc(C(=O)N/N=C(\\C)c2ccncc2)s1", "hERG current change (%, negative = inhibition) at 10uM": -11.1}, {"smiles": "O=C(COc1ccc(/C=N/NS(=O)(=O)c2ccccc2)cc1)Nc1ccc(F)cc1", "hERG current change (%, negative = inhibition) at 10uM": -37.6}, {"smiles": "Cc1ccc(S(=O)(=O)N2CC(=O)NC(=O)C2)cc1", "hERG current change (%, negative = inhibition) at 10uM": 6.07}, {"smiles": "CCNS(=O)(=O)c1ccc(CCC(=O)NCc2ccncc2)cc1", "hERG current change (%, negative = inhibition) at 10uM": 2.58}, {"smiles": "O=C(NC1CCCCC1)c1noc2c1CCCCC2", "hERG current change (%, negative = inhibition) at 10uM": -12.2}, {"smiles": "c1ccc(CCc2nn3c(-c4ccncc4)nnc3s2)cc1", "hERG current change (%, negative = inhibition) at 10uM": -53.9}, {"smiles": "CN(C)S(=O)(=O)c1ccc(C(=O)Nc2ccc3ncccc3c2)cc1", "hERG current change (%, negative = inhibition) at 10uM": 21.8}, {"smiles": "CCNC(=O)NC(=O)CSc1ccc(S(=O)(=O)N(C)C2CCCCC2)cn1", "hERG current change (%, negative = inhibition) at 10uM": -16.4}, {"smiles": "O=c1[nH]cc(COCC(F)(F)C(F)(F)C(F)(F)F)c(=O)[nH]1", "hERG current change (%, negative = inhibition) at 10uM": 16.7}, {"smiles": "CCC(=O)N1CCN(c2ccc(Cl)cc2NC(=O)c2ccc3c(c2)OCCO3)CC1", "hERG current change (%, negative = inhibition) at 10uM": -37.2}]}]}
